# Data published in publication PMC5700166.
# The list shows a part of the results, in another mix than the full data. The list includes weakly bound sequences.
# How the values were obtained:
# Assay in all cases: protein-binding microarray (PBM)
# Conditions in all cases: PBM: ~300 nM protein, 6 mM HEPES pH 7.8, 80 mM KCl, 0.5 mM EDTA, 0.5 mM EGTA, 6% glycerol, 35 ng/ul poly-dIdC, 1% milk, 1 h, room temperature; Ap Aiptasia and Nv Nematostella (sea anemones) / Co Capsaspora / Aq Amphimedon (sponge) / Dm Drosophila / Hu human; RHD is the Rel homology domain; high values mean tight binding; most listed sequences are background and not binding sites; double strand, one strand shown
# GST-Ap-NF-kB RHD = target: T1, GST-Ap-NF-kB RHD (UniProt A0A913YAJ5)
# T1 sequence: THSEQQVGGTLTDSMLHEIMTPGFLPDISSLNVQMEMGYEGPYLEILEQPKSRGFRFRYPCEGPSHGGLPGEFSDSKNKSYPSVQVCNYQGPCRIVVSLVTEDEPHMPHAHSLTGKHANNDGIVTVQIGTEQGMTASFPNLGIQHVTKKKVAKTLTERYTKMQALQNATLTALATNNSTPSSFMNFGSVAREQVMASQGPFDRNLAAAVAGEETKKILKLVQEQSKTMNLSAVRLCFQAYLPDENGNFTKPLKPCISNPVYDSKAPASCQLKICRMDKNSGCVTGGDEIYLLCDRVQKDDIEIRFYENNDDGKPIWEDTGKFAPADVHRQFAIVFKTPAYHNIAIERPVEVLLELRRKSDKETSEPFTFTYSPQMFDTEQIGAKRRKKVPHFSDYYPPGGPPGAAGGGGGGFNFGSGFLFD
# [1] = target: T2, GST-Nv-NF-kB (Cys allele) (UniProt E5G601)
# T2 sequence: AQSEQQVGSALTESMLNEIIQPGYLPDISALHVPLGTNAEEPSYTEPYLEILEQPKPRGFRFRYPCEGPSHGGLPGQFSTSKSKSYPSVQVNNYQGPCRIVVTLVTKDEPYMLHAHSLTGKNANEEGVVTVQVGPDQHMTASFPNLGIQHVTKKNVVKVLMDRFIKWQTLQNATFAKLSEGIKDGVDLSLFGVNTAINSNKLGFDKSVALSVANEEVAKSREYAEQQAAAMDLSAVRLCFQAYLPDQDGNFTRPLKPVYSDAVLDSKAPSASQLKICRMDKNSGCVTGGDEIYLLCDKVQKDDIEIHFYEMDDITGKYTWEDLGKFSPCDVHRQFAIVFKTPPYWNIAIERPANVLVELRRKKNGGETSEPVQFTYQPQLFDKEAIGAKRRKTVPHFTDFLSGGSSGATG
# GST-Co-NF-kB = target: T3, GST-Co-NF-kB (UniProt F1ARL5)
# T3 sequence: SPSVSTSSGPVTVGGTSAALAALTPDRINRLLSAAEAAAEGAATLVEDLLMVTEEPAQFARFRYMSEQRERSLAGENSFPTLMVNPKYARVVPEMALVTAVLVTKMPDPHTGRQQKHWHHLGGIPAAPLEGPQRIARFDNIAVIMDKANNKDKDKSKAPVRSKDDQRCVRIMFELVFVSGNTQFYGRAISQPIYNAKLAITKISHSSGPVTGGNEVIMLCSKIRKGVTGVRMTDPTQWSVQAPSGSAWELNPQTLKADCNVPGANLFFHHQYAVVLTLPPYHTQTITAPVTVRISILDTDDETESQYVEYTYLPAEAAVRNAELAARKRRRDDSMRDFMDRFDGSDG
# GST-Dm-Relish = target: T4, GST-Dm-Relish (UniProt Q94527)
# T4 sequence: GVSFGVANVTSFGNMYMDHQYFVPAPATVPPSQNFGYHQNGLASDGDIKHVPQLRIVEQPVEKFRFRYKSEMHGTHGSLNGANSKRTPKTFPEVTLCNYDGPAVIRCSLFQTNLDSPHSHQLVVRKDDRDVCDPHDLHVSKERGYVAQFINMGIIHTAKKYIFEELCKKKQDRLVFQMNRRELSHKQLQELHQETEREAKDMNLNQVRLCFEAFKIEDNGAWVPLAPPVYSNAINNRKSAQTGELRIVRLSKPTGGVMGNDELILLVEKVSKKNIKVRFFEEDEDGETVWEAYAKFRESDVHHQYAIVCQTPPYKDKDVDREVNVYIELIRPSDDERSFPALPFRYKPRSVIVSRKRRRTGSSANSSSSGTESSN
# GST-Aq-NF-kB = target: T5, GST-Aq-NF-kB (UniProt A9Y5G7)
# T5 sequence: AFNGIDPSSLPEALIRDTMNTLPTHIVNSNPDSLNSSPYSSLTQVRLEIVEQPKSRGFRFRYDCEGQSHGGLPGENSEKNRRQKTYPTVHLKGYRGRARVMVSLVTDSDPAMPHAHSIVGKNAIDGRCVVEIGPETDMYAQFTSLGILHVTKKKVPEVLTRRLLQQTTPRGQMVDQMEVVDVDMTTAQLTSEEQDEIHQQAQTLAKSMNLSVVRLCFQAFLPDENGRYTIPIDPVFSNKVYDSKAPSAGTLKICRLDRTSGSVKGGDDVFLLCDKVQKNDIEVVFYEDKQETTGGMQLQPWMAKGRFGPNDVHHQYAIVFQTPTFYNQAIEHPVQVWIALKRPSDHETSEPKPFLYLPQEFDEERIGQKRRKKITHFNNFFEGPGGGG
Sequence,binding signal (GST-Ap-NF-kB RHD),binding signal [1],binding signal (GST-Co-NF-kB),binding signal (GST-Dm-Relish),binding signal (GST-Aq-NF-kB)
CCGATTAACATCACAGGCTTGCGTGATGTTAATCGGGTCTTGATTCGCTTGACGCTGCTG,-0.697 z-score,-0.1 z-score,-0.562 z-score,0.209 z-score,-0.889 z-score
CCGATTAACATCAGATTTCATTCTGATGTTAATCGGGTCTTGATTCGCTTGACGCTGCTG,-1.14 z-score,-0.777 z-score,-1.68 z-score,-0.656 z-score,-0.819 z-score
CCGATTAACATCAGTGACTCAGTTGATGTTAATCGGGTCTTGATTCGCTTGACGCTGCTG,-0.166 z-score,-0.3 z-score,-1.06 z-score,-0.548 z-score,-0.281 z-score
CCGATTAACATCATACTCCTTGATGATGTTAATCGGGTCTTGATTCGCTTGACGCTGCTG,-0.0989 z-score,-0.589 z-score,-0.449 z-score,-0.396 z-score,-0.145 z-score
CCGATTAACATCATATGTCAGTCTGATGTTAATCGGGTCTTGATTCGCTTGACGCTGCTG,-0.0216 z-score,-1.08 z-score,-0.58 z-score,-0.996 z-score,-0.522 z-score
CCGATTAACATCAGTGCTGACCGTGATGTTAATCGGGTCTTGATTCGCTTGACGCTGCTG,-0.124 z-score,0.00688 z-score,0.223 z-score,-0.374 z-score,-0.0959 z-score
CCGATTAACATCAGGCTGTAGAGTGATGTTAATCGGGTCTTGATTCGCTTGACGCTGCTG,0.0504 z-score,0.0828 z-score,-0.211 z-score,0.00098 z-score,-0.0854 z-score
CCGATTAACATCACGATCATGTTTGATGTTAATCGGGTCTTGATTCGCTTGACGCTGCTG,-0.639 z-score,-0.912 z-score,-0.222 z-score,-0.604 z-score,-0.478 z-score
CCGATTAACATCAAAATGCATGATGATGTTAATCGGGTCTTGATTCGCTTGACGCTGCTG,-0.274 z-score,-0.0857 z-score,-0.339 z-score,-0.595 z-score,-0.384 z-score
CCGATTAACATCACCATCCAACTTGATGTTAATCGGGTCTTGATTCGCTTGACGCTGCTG,0.0058 z-score,0.231 z-score,0.263 z-score,0.301 z-score,-0.0376 z-score
CCGATTAACATCACTAAAATTATTGATGTTAATCGGGTCTTGATTCGCTTGACGCTGCTG,-0.674 z-score,-0.31 z-score,-0.581 z-score,0.182 z-score,0.015 z-score
CCGATTAACATCAGAAATTCCACTGATGTTAATCGGGTCTTGATTCGCTTGACGCTGCTG,0.333 z-score,-0.00805 z-score,-0.163 z-score,0.472 z-score,0.719 z-score
CCGATTAACATCATTGGCGGATATGATGTTAATCGGGTCTTGATTCGCTTGACGCTGCTG,0.271 z-score,-0.177 z-score,0.27 z-score,-0.458 z-score,-0.165 z-score
CCGATTAACATCAGAAGCGGTAGTGATGTTAATCGGGTCTTGATTCGCTTGACGCTGCTG,0.129 z-score,0.275 z-score,0.83 z-score,0.0916 z-score,-0.147 z-score
CCGATTAACATCAACAACGGTTCTGATGTTAATCGGGTCTTGATTCGCTTGACGCTGCTG,-0.508 z-score,-0.837 z-score,-0.224 z-score,-0.794 z-score,-0.5 z-score
CCGATTAACATCAAGCAAGGGCGTGATGTTAATCGGGTCTTGATTCGCTTGACGCTGCTG,-0.0469 z-score,-0.0972 z-score,-0.202 z-score,-0.416 z-score,-0.251 z-score
CCGATTAACATCACCCATGTATTTGATGTTAATCGGGTCTTGATTCGCTTGACGCTGCTG,-0.124 z-score,-0.142 z-score,0.875 z-score,0.955 z-score,-0.002 z-score
CCGATTAACATCAGTTTCTATTCTGATGTTAATCGGGTCTTGATTCGCTTGACGCTGCTG,-0.423 z-score,0.402 z-score,-0.365 z-score,-0.394 z-score,-0.318 z-score
CCGATTAACATCACAGATCTTTGTGATGTTAATCGGGTCTTGATTCGCTTGACGCTGCTG,-1.09 z-score,-1.02 z-score,-1.22 z-score,0.368 z-score,-0.744 z-score
CCGATTAACATCAAGAGAGAAAGTGATGTTAATCGGGTCTTGATTCGCTTGACGCTGCTG,0.235 z-score,0.675 z-score,1.16 z-score,0.16 z-score,-0.0452 z-score
CCGATTAACATCAGAAATTTGCCTGATGTTAATCGGGTCTTGATTCGCTTGACGCTGCTG,-0.281 z-score,-0.348 z-score,0.444 z-score,-0.0302 z-score,-0.016 z-score
CCGATTAACATCATAGAGCATACTGATGTTAATCGGGTCTTGATTCGCTTGACGCTGCTG,0.0208 z-score,0.229 z-score,0.397 z-score,-0.504 z-score,-0.358 z-score
CCGATTAACATCACGGTGTGGGTTGATGTTAATCGGGTCTTGATTCGCTTGACGCTGCTG,0.591 z-score,-0.466 z-score,1.37 z-score,0.0597 z-score,0.0136 z-score
CCGATTAACATCACGACTAGTTCTGATGTTAATCGGGTCTTGATTCGCTTGACGCTGCTG,-0.843 z-score,-0.381 z-score,-0.713 z-score,-0.614 z-score,-0.42 z-score
